PMC6212790
Some of the results follow. At the low end of the ranking, values are background and their order means little.
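Note: rank score from −0.5 (least bound) to 0.5 (best bound).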

These sequences were tested against T1, GST-Rok-C97-191 (UniProt O34857) (assay: protein binding microarray). Conditions: Rok is a gene silencer of Bacillus subtilis; high values mean tight binding; most listed sequences are background and not binding sites; double strand, one strand shown.
T1 sequence: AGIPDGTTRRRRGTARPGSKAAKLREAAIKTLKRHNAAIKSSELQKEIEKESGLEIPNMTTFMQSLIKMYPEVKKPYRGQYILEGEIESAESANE
Work on GGCCGTAC yielded a binding signal of 0.0378 E-score. Sequence AAAATTCA has a binding signal of 0.0675 E-score. In the case of AGGCCAGA, the binding signal is reported as -0.127 E-score. ACATCACA gave a binding signal of 0.057 E-score. In the case of ACAAATGA, the binding signal is reported as 0.0821 E-score. With CCCGCTAC the binding signal was -0.0971 E-score. With AATAACAG the binding signal was 0.0809 E-score. For ATGTCCTG, the binding signal was -0.123 E-score. CACCGCGC gave a binding signal of -0.111 E-score. For GACGTGTA, the binding signal was 0.0493 E-score. AATGCTGC gave a binding signal of -0.0908 E-score. In the case of ATTGAGAG, the binding signal is reported as 0.0103 E-score. ATAAACGC was tested, and the binding signal was 0.1 E-score. Sequence GGAGGCAA has a binding signal of -0.106 E-score. GCTTATCC showed a binding signal of -0.0892 E-score. Sequence GCGTATGA has a binding signal of 0.208 E-score. ATGGGACA showed a binding signal of -0.107 E-score. In the case of CACATCGC, the binding signal is reported as -0.12 E-score. AATCCATA was tested, and the binding signal was 0.114 E-score. With GCGCCAAC the binding signal was -0.216 E-score. CATTACCC was tested, and the binding signal was 0.0982 E-score. For AATGGCCA, the binding signal was 0.0996 E-score. With CACTGTTC the binding signal was -0.112 E-score. Work on GAAGGAGA yielded a binding signal of -0.109 E-score. Work on CCTACCTC yielded a binding signal of 0.0789 E-score. Sequence GAGGCGCC has a binding signal of -0.288 E-score. ATCGAGAC gave a binding signal of -0.325 E-score. ACCCCCGC was tested, and the binding signal was -0.246 E-score. ATATTTGG showed a binding signal of 0.114 E-score. With CGGTTTGC the binding signal was 0.138 E-score. TCCGCTAA was tested, and the binding signal was 0.189 E-score. In the case of CTAGAAAG, the binding signal is reported as 0.113 E-score. For AGACGCGA, the binding signal was -0.189 E-score. AAACTTGA showed a binding signal of 0.156 E-score. With ACCTCCTC the binding signal was -0.153 E-score. Sequence ATACTTTA has a binding signal of 0.196 E-score. CAGGGTGC showed a binding signal of -0.228 E-score. Work on CGGCGGTA yielded a binding signal of 0.123 E-score. In the case of AAGGGTGC, the binding signal is reported as -0.165 E-score. In the case of GTTCGACA, the binding signal is reported as 0.0856 E-score. CCATTAAG showed a binding signal of 0.018 E-score. With AGGCCCAT the binding signal was -0.253 E-score. CCATTAAA showed a binding signal of -0.149 E-score. In the case of CAGTTTCA, the binding signal is reported as -0.125 E-score. Sequence GCATTGCC has a binding signal of -0.0711 E-score. Work on ACCCAAGT yielded a binding signal of 0.0146 E-score. Work on CTGCTCTC yielded a binding signal of -0.267 E-score. CCAAGTCA showed a binding signal of -0.124 E-score. Sequence GGCGTCTA has a binding signal of -0.241 E-score. Work on CGAGTGCC yielded a binding signal of -0.177 E-score. TTCAGGAA was tested, and the binding signal was 0.0402 E-score. ACTGCGGG showed a binding signal of -0.0383 E-score. Sequence AGCTGAGA has a binding signal of -0.152 E-score. For ACAACCGC, the binding signal was -0.0249 E-score. AGATATAG gave a binding signal of 0.188 E-score. Work on AGCACAGG yielded a binding signal of -0.194 E-score. For CGGCGTAG, the binding signal was -0.0754 E-score. In the case of CGGACATC, the binding signal is reported as -0.0996 E-score. Sequence AACCACTT has a binding signal of -0.00419 E-score. Work on TATCGTCA yielded a binding signal of 0.0192 E-score. CTTGGAGC showed a binding signal of -0.184 E-score. For TGCCGGAA, the binding signal was 0.00624 E-score. Work on ATGGGTCC yielded a binding signal of -0.21 E-score. With TCCATCCA the binding signal was 0.0675 E-score. In the case of CGTCCACC, the binding signal is reported as -0.198 E-score. GACTGCTC was tested, and the binding signal was -0.224 E-score. For AGTTGGTA, the binding signal was 0.213 E-score. For AAGAGCGA, the binding signal was -0.109 E-score. In the case of CTGCTTCA, the binding signal is reported as -0.199 E-score. Sequence AGGTTTCA has a binding signal of -0.208 E-score. In the case of AGCATACA, the binding signal is reported as -0.095 E-score. Work on AGCTTTGC yielded a binding signal of -0.234 E-score. CATGCTTA showed a binding signal of 0.0132 E-score. CCTAGGTA gave a binding signal of 0.144 E-score. CCGGATCC was tested, and the binding signal was -0.266 E-score. In the case of TATAGACA, the binding signal is reported as 0.00807 E-score. With ACTACGAA the binding signal was 0.163 E-score. ACCATACA showed a binding signal of 0.0658 E-score. ATAAATCA was tested, and the binding signal was -0.0059 E-score. ACCGGTCC was tested, and the binding signal was -0.156 E-score. TCAATGAA gave a binding signal of -0.109 E-score. AAAGTCCC showed a binding signal of -0.253 E-score. Sequence ACGATGCC has a binding signal of -0.0936 E-score. Work on ATACCTAT yielded a binding signal of 0.323 E-score. CCTGCGTA gave a binding signal of -0.031 E-score. In the case of TGACGACA, the binding signal is reported as -0.23 E-score. ATCCCCCC was tested, and the binding signal was -0.26 E-score. With AGGTGACA the binding signal was 0.055 E-score. CGGGCGTA gave a binding signal of -0.0765 E-score. With GGTACTAA the binding signal was 0.249 E-score. GAGCGATC gave a binding signal of -0.0781 E-score. ATTGGGAG was tested, and the binding signal was 0.0203 E-score. With CAATGTGA the binding signal was 0.158 E-score. AGGGGGAC was tested, and the binding signal was -0.31 E-score. Sequence CCTGTTGC has a binding signal of -0.301 E-score. CCACAAAA gave a binding signal of -0.0888 E-score. AAAGTACC gave a binding signal of 0.291 E-score. Sequence CTACTTCC has a binding signal of 0.238 E-score. In the case of CGTGACAC, the binding signal is reported as -0.166 E-score. Work on GCATACGA yielded a binding signal of 0.123 E-score. Work on TGCGGTAA yielded a binding signal of 0.0217 E-score. With AAAATGTG the binding signal was 0.218 E-score. GGGGTCAA showed a binding signal of -0.299 E-score. With CGGATGGA the binding signal was 0.0108 E-score. CCGCTACG showed a binding signal of -0.154 E-score. GGCAGGCC showed a binding signal of -0.335 E-score. Work on ATGGGCCC yielded a binding signal of -0.271 E-score. Sequence GGCCGACA has a binding signal of -0.327 E-score. CTCGCAAA was tested, and the binding signal was 0.0435 E-score. In the case of GGCATGAC, the binding signal is reported as -0.224 E-score. Work on GATTGGGC yielded a binding signal of -0.358 E-score. Sequence CAAGCGAA has a binding signal of -0.223 E-score. For GACGCCCA, the binding signal was -0.364 E-score. Work on AGTAATGG yielded a binding signal of 0.153 E-score. Work on ATAGTCAG yielded a binding signal of 0.132 E-score. For ACTAGTCA, the binding signal was 0.228 E-score. With GATCTATA the binding signal was 0.305 E-score. ACTAGATG gave a binding signal of 0.317 E-score. In the case of AGGAAGCG, the binding signal is reported as -0.177 E-score. In the case of AAGACCGA, the binding signal is reported as -0.272 E-score. AGCAGCAC gave a binding signal of -0.144 E-score. Work on CGCGTACA yielded a binding signal of 0.049 E-score. Work on GTAAAAGA yielded a binding signal of 0.233 E-score. Work on ATGAAGCC yielded a binding signal of -0.236 E-score. With TGAAAGAA the binding signal was 0.12 E-score. With GCCAAAAC the binding signal was -0.0219 E-score. Sequence CCTGAGAC has a binding signal of -0.304 E-score. With TGGGCCAA the binding signal was -0.218 E-score. CAGGACGA was tested, and the binding signal was -0.231 E-score. In the case of GCCCATGA, the binding signal is reported as -0.214 E-score. AACGTACC gave a binding signal of -0.0927 E-score. For AAGACGGC, the binding signal was -0.186 E-score. Sequence ATCCGCAG has a binding signal of 0.00726 E-score. GCCCCTAA gave a binding signal of -0.239 E-score. With AGTCTCCC the binding signal was -0.203 E-score. In the case of AAAAGAGT, the binding signal is reported as 0.105 E-score. Work on CACAACAA yielded a binding signal of 0.0807 E-score. For CCTACGCG, the binding signal was -0.16 E-score. With CGAATAAG the binding signal was 0.0155 E-score. For AAGAGTCG, the binding signal was -0.189 E-score. ACACTGGC was tested, and the binding signal was -0.127 E-score. Work on GAAAAGGA yielded a binding signal of -0.0549 E-score. ATCAGCTA was tested, and the binding signal was 0.165 E-score. Sequence ATTTGATC has a binding signal of 0.158 E-score. In the case of ACACAAGC, the binding signal is reported as -0.19 E-score. ACTGGCCC gave a binding signal of -0.175 E-score. CCGTAATC was tested, and the binding signal was -0.168 E-score. Work on CCAATAGA yielded a binding signal of -0.0604 E-score. AAACGAGA gave a binding signal of 0.106 E-score. Sequence AGCCGCCT has a binding signal of -0.284 E-score. With ATATACCG the binding signal was 0.384 E-score. AGCACTTA showed a binding signal of 0.0373 E-score. Sequence AGTTCTGC has a binding signal of 0.0746 E-score. GTGGCTTA gave a binding signal of -0.147 E-score. In the case of GCCACGCC, the binding signal is reported as -0.312 E-score. In the case of CAGAAGGC, the binding signal is reported as -0.151 E-score. AACTACCA was tested, and the binding signal was 0.433 E-score. With AGGCACCT the binding signal was -0.182 E-score. With ATCCTAGC the binding signal was 0.0674 E-score. Work on ATCCGATG yielded a binding signal of 0.0166 E-score. Sequence CCAGGCTA has a binding signal of -0.0727 E-score. For CACAGGCG, the binding signal was -0.233 E-score. For TCGTAACA, the binding signal was -0.0292 E-score. Sequence CGTGCCGC has a binding signal of -0.266 E-score. Work on GGAGAGTA yielded a binding signal of -0.135 E-score. In the case of AATCTGCC, the binding signal is reported as 0.0535 E-score. ATGCACTC was tested, and the binding signal was -0.113 E-score. CTTGCTGA gave a binding signal of 0.00535 E-score. CAAGCGAC was tested, and the binding signal was -0.0596 E-score. Work on CGAATCCA yielded a binding signal of -0.0594 E-score. CGGCATAG was tested, and the binding signal was -0.0893 E-score. In the case of GCTTCCAC, the binding signal is reported as -0.151 E-score.
